{"sequences": {"note": "By UniProt entry, the sequences of proteins in these tests, tags left out.", "UniProt Q61188": "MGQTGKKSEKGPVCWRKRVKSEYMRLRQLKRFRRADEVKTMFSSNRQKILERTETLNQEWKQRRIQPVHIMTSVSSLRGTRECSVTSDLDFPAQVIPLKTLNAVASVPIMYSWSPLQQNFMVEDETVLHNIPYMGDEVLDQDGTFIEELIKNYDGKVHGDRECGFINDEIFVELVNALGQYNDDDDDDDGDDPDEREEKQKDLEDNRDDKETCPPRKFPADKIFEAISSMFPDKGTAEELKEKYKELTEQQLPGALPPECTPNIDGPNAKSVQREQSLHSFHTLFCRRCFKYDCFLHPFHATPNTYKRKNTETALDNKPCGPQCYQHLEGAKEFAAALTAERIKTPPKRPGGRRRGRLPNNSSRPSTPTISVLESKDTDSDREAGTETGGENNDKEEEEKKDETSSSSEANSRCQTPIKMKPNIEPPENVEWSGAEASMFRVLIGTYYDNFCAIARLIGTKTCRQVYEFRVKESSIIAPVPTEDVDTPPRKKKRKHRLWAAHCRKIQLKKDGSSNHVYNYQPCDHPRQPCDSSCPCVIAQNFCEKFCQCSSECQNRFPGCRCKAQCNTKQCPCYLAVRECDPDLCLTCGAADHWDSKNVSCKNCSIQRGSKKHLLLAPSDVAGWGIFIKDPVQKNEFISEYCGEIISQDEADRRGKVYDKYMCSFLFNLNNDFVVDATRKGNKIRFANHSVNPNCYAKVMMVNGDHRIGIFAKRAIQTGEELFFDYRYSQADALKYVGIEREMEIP", "UniProt Q9CQJ4": "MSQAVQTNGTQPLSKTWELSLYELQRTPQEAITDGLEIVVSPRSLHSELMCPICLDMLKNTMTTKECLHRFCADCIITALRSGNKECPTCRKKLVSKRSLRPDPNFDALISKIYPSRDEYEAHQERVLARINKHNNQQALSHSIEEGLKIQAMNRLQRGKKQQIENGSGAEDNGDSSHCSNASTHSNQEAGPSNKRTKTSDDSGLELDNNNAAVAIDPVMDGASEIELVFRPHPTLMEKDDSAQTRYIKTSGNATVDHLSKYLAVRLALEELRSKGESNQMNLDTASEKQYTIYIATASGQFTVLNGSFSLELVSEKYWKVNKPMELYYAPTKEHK"}, "source": "paper PMC2927437", "molecules": {"B1": {"name": "HA-tagged Zfp277 (Zinc finger domain-containing protein 277) (protein, UniProt E9Q6D6-2 1-457)", "chain": "MAASEVQGLPVDPREAGVRGVRGGIGHTDHEDSKDCILEPLSLPESPGGTTALEGSPSVPCIFCEEHFPMAEQDKLLKHMIIEHKIVIADVKLVADFRRYILYWRKRFTEQPITDFCSVIRINSTAPFEEQDNYYLLCDALPEDRILREELQKHKLKEVLDQQQRERNDTSFHGVCMFCSEEFRGNRSVLLNHMAREHAFNIGLPDNIVNCAEFLCTLQKKLDNLQCLYCEKTFRDKNTLKDHMRKKQHRRINPKNREYDRFYVINYLELGKSWEEVQSEDDRELLDLQEDDWSDWQEYPVSAVCLFCEKQEETIDKLYVHMKDTHEFDLLRIKSELGLNFYQQVKLVNFIRRQVHQCKCYSCHVKFKSKADLRTHMEDTKHTSLLPDRKTWDQLEYYFPTYENDTLLCTLSDSESDLTAQEQTENVPVISEDTSRLCALKQSSVLNQLLLQGCLEN"}, "B2": {"name": "in vitro-translated Zfp277 (protein, UniProt E9Q6D6-2 1-457)", "chain": "B1 chain"}, "B3": {"name": "endogenous Bmi1 (protein, UniProt P25916 1-324)", "chain": "MHRTTRIKITELNPHLMCVLCGGYFIDATTIIECLHSFCKTCIVRYLETSKYCPICDVQVHKTRPLLNIRSDKTLQDIVYKLVPGLFKNEMKRRRDFYAAHPSADAANGSNEDRGEVADEEKRIITDDEIISLSIEFFDQSRLDRKVNKEKPKEEVNDKRYLRCPAAMTVMHLRKFLRSKMDIPNTFQIDVMYEEEPLKDYYTLMDIAYIYTWRRNGPLPLKYRVRPTCKRMKMSHQRDGLTNAGELESDSGSDKANSPAGGVPSTSSCLPSPSTPVQSPHPQFPHISSTMNGTSNSPSANHQSSFASRPRKSSLNGSSATSSG"}, "B4": {"name": "endogenous Zfp277 (protein, UniProt E9Q6D6-2 1-457)", "chain": "B1 chain"}, "B5": {"name": "Flag-tagged Bmi1 fused with GFP (protein, UniProt P25916 1-324)", "chain": "B3 chain"}, "B6": {"name": "in vitro-translated Mel18 (protein, UniProt P23798 1-342)", "chain": "MHRTTRIKITELNPHLMCALCGGYFIDATTIVECLHSFCKTCIVRYLETNKYCPMCDVQVHKTRPLLSIRSDKTLQDIVYKLVPGLFKDEMKRRRDFYAAYPLTEVPNGSNEDRGEVLEQEKGALGDDEIVSLSIEFYEGVRDREEKKNLTENGDGDKEKTGVRFLRCPAAMTVMHLAKFLRNKMDVPSKYKVEILYEDEPLKEYYTLMDIAYIYPWRRNGPLPLKYRVQPACKRLTLPTVPTPSEGTNTSGASECESVSDKAPSPATLPATSSSLPSPATPSHGSPSSHGPPATHPTSPTPPSTAAGTTTATNGGTSNCLQTPSSTSRGRKMTVNGAPCPP"}}, "key": {"[1]": {"target": "T1, endogenous Bmi1 (mouse (endogenous in MEFs)) (UniProt P25916)", "T1 sequence": "B3 chain", "assay": "co-IP; endogenous proteins; whole-cell extracts of MEFs immunoprecipitated with rabbit anti-Zfp277 serum or anti-Bmi1 monoclonal antibody, control IgG; Western blot"}, "[2]": {"target": "T2, endogenous Zfp277 (mouse (endogenous in MEFs)) (UniProt E9Q6D6)", "T2 sequence": "B1 chain", "assay": "co-IP; endogenous proteins; whole-cell extracts of MEFs immunoprecipitated with rabbit anti-Zfp277 serum or anti-Bmi1 monoclonal antibody, control IgG; Western blot"}, "[3]": {"target": "T3, Myc-tagged Mel18 (UniProt P23798)", "T3 sequence": "B6 chain", "assay": "co-IP; HA-Zfp277 cotransfected with Flag-tagged Bmi1, Ring1B, Ezh2 or Myc-tagged Mel18 into human 293T cells; lysis in 20 mM sodium phosphate pH 7.0, 250 mM NaCl, 0.1% NP-40, 4°C; Western blot of the immunoprecipitates"}, "[4]": {"target": "T4, Flag-tagged Bmi1 fused with GFP (UniProt P25916)", "T4 sequence": "B3 chain", "assay": "co-IP; HA-Zfp277 cotransfected with Flag-tagged Bmi1, Ring1B, Ezh2 or Myc-tagged Mel18 into human 293T cells; lysis in 20 mM sodium phosphate pH 7.0, 250 mM NaCl, 0.1% NP-40, 4°C; Western blot of the immunoprecipitates"}, "[5]": {"target": "Flag-tagged Ezh2 (UniProt Q61188)", "assay": "co-IP; HA-Zfp277 cotransfected with Flag-tagged Bmi1, Ring1B, Ezh2 or Myc-tagged Mel18 into human 293T cells; lysis in 20 mM sodium phosphate pH 7.0, 250 mM NaCl, 0.1% NP-40, 4°C; Western blot of the immunoprecipitates"}, "[6]": {"target": "Flag-tagged Ring1B (UniProt Q9CQJ4)", "assay": "co-IP; HA-Zfp277 cotransfected with Flag-tagged Bmi1, Ring1B, Ezh2 or Myc-tagged Mel18 into human 293T cells; lysis in 20 mM sodium phosphate pH 7.0, 250 mM NaCl, 0.1% NP-40, 4°C; Western blot of the immunoprecipitates"}, "[7]": {"target": "T5, GST-Bmi1 (UniProt P25916)", "T5 sequence": "B3 chain", "assay": "pull-down; GST in vitro binding assay: GST fusion protein with in vitro-translated partner; only the target purified"}, "[8]": {"target": "T6, HA-tagged Zfp277^1-140 (mouse) (UniProt E9Q6D6)", "T6 sequence": "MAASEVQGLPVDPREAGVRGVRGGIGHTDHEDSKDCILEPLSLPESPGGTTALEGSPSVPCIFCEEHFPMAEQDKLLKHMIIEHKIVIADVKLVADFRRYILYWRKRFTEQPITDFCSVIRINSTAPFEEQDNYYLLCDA", "assay": "co-IP; HA-tagged deletion mutants of Zfp277 and Flag-tagged Bmi1 cotransfected into 293T cells, 48 hrs; immunoprecipitated with anti-HA, blotted with anti-Flag or anti-HA"}, "[9]": {"target": "T7, HA-tagged Zfp277^1-58 (mouse) (UniProt E9Q6D6)", "T7 sequence": "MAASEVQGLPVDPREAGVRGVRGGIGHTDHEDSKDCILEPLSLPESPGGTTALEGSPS", "assay": "co-IP; HA-tagged deletion mutants of Zfp277 and Flag-tagged Bmi1 cotransfected into 293T cells, 48 hrs; immunoprecipitated with anti-HA, blotted with anti-Flag or anti-HA"}, "[10]": {"target": "T8, GST-Zfp277 (mouse) (UniProt E9Q6D6)", "T8 sequence": "B1 chain", "assay": "pull-down; GST in vitro binding assay: GST fusion protein with in vitro-translated partner; only the target purified"}}, "note": "No constants are given. Whether binding was seen depends on the method and setting. In cells and extracts the contact can be indirect. Some entries that bind do so weakly or less than the wild type. For part of these data: Sequences can lack the tags named with a protein.", "data": [{"molecule": "endogenous Ring1B (from UniProt Q9CQJ4 1-336)", "values": [{"measurement": "binding", "setting": "[1]", "value": "binds"}]}, {"molecule": "endogenous Ezh2 (from UniProt Q61188 1-746)", "values": [{"measurement": "binding", "setting": "[2]", "value": "no binding"}]}, {"molecule": "B1", "values": [{"measurement": "binding", "setting": "[3]", "value": "no binding"}, {"measurement": "binding", "setting": "[4]", "value": "binds"}, {"measurement": "binding", "setting": "[5]", "value": "no binding"}, {"measurement": "binding", "setting": "[6]", "value": "no binding"}]}, {"molecule": "B2", "values": [{"measurement": "binding", "setting": "[7]", "value": "binds"}]}, {"molecule": "B3", "values": [{"measurement": "binding", "setting": "[2]", "value": "binds"}]}, {"molecule": "B4", "values": [{"measurement": "binding", "setting": "[1]", "value": "binds"}]}, {"molecule": "B5", "values": [{"measurement": "binding", "setting": "[8]", "value": "binds"}, {"measurement": "binding", "setting": "[9]", "value": "binds"}]}, {"molecule": "B6", "values": [{"measurement": "binding", "setting": "[10]", "value": "no binding"}]}]}
